Measured values published in a compilation of properties of binary mixtures (doi:10.1039/b819795b).
Some of these densities may be calculated back from excess volumes.

Test: xn = mol fraction of the nth substance listed
Settings: 101 kPa

CCCCCCCC[n+]1ccn(C)c1.F[P-](F)(F)(F)(F)F + CCCCCCC
mass density [kg/m3]
Settings	x2 = 0	x2 = 0.0074	x2 = 0.0516	x2 = 0.0803
293.15 K	1239.6	1237.4	1224.2	–
298.15 K	1235.7	–	1220.4	1212.2
303.15 K	–	1229.7	–	1208.4

CCCCCCCC[n+]1ccn(C)c1.F[P-](F)(F)(F)(F)F + CCCCCC
mass density [kg/m3]
Settings	x2 = 0	x2 = 0.0468	x2 = 0.0712	x2 = 0.0893	x2 = 0.1268
293.15 K	1239.6	1227.4	1221	1216.1	–
298.15 K	1235.7	1223.6	1217.1	–	1201.5
303.15 K	1231.9	1219.7	–	1208.4	1197.6

CC(C)O + CCCCCCCC[n+]1ccn(C)c1.F[P-](F)(F)(F)(F)F
Settings	mass density [kg/m3]
293.15 K, x1 = 1	785

CCCCCCCC[n+]1ccn(C)c1.F[P-](F)(F)(F)(F)F + CC(C)O
mass density [kg/m3]
Settings	293.15 K	298.15 K	303.15 K
x1 = 0.0004	785.7	781.7	777.3
x1 = 0.0009	786.6	782.6	778.2
x1 = 0.0014	787.5	–	779.1
x1 = 0.0024	789.1	785.1	780.7
x1 = 0.003	790.1	786.1	781.8
x1 = 0.0053	–	790	785.7
x1 = 0.0098	–	–	793.2
x2 = 0	1239.6	1235.7	1231.9
x2 = 0.0069	–	1235	1231.2
x2 = 0.0965	1227.1	1223.3	1219.5
x2 = 0.2012	1210.9	1207.1	1203.2
x2 = 0.304	1192	1188.1	–
x2 = 0.4009	1170.5	1166.5	1162.6
x2 = 0.4943	1145.1	–	–
x2 = 0.5989	1109.3	1105.3	–
x2 = 0.6487	–	1084.5	1080.3
x2 = 0.6964	–	1061.7	1057.5
x2 = 0.7469	–	–	1029.7

CCCCCCC + CCCCCCCC[n+]1ccn(C)c1.F[P-](F)(F)(F)(F)F
x1 = 1
Settings	mass density [kg/m3]
293.15 K	683.7
298.15 K	679.5
303.15 K	675.2

CCCCCC + CCCCCCCC[n+]1ccn(C)c1.F[P-](F)(F)(F)(F)F
x1 = 1
Settings	mass density [kg/m3]
293.15 K	659.5
298.15 K	654.9
